The values that follow come from patent publication US20220073637A1 (CITY OF HOPE, published 2022).

The target of one assay is T1, human CD6 (human, UniProt P30203 18-402, limits assumed).
T1 sequence (looked up): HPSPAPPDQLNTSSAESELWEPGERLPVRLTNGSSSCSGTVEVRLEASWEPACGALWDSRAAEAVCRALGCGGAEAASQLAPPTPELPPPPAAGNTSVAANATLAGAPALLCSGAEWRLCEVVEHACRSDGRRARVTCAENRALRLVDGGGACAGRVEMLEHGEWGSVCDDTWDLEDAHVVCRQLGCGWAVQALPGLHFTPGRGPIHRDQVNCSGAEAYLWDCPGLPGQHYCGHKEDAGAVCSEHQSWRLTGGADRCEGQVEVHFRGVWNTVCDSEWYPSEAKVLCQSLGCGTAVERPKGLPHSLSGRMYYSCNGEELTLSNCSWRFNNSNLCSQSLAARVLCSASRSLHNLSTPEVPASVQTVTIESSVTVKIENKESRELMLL
The assay can be described thus: ELISA on human CD6; enzymatic site non-cleaved. The method, then: FIG. 35. Human CD6 binding of exemplary anti-CD6/EGF antibody-growth factor complexes provided herein. ELISA of bionic anti-CD6/EGF antibody conjugate of SEQ ID NO:38 and D104N mutant bionic anti-CD6/EGF antibody conjugate binding to CD6 is shown. The dilution of the antibodies was carried out with respect to the concentration obtained by OD₂₈₀. The enzymatic site is non-cleaved for both mAbs.
A general note: In an ELISA, binding on a coated surface is turned into a signal by an enzyme label.

The target in a further assay is T2, CD6 Ecto (ectodomain) (UniProt P30203 18-402).
T2 construct: extracellular domain; also called ecto CD6 domain; CD6 ecto domain
T2 sequence (looked up): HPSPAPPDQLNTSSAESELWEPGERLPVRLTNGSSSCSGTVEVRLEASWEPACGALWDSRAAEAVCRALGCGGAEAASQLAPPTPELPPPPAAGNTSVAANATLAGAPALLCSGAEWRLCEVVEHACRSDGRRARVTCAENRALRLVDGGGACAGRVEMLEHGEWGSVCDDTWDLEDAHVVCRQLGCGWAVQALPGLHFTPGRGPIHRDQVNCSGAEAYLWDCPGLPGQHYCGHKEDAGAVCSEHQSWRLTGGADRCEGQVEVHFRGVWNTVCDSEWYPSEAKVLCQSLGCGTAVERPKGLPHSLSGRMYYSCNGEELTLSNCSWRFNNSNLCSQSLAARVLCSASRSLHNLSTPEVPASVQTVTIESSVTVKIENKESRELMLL
The assay can be described thus: SPR (Biacore), CD6 Ecto immobilized on CM5 chip, conjugate 50-0.39 nM, 25 °C. The method, then: FIG. 33. SPR of an exemplary anti-CD6 antibody-growth factor complex provided herein. SPR with MMP2 cleaved bionic anti-CD6/EGF antibody conjugate with CD6 Ecto is shown. CD6 Ecto was immobilized to a Biacore CM5 chip using NHS chemistry. Concentrations of purified cleaved bionic anti-CD6/EGF antibody conjugate ranging from 50 nM to 0.39 nM were flown over the chip at 25° C.
A general note: Surface plasmon resonance follows binding to a sensor surface in real time, without labels.

The target in another assay is T3, EGFR (UniProt P00533 in part, limits assumed).
T3 construct: also called epidermal growth factor receptor
The assay can be described thus: SPR (Biacore), EGFR immobilized on CM5 chip by NHS chemistry, conjugate 0.0625-2 µM, 25 °C. The method, then:
FIG. 26. Dissociation constant (KD) of an exemplary anti-CD6 antibody-growth factor complex provided herein. Bionic anti-CD6/EGF antibody conjugate of SEQ ID NO:32 binding to EGFR is shown. EGFR was immobilized to a Biacore CM5 chip using NHS chemistry. Concentrations of previously cleaved and purified bionic anti-CD6/EGF antibody conjugate ranging from 0.0625 μM to 2 μM were flown over the chip at 25° C.

B1: bionic anti-CD6/EGF antibody conjugate of SEQ ID NO:38 (Fc fusion)
chain: DIQMTQSPILLSASVGDRVTITCKASRDIRSYLTWYQQRTNGSPRTLIYYATSLADGVPSRFSGSGSGQDYSLTISSLESDDIADYYCLQHGESPFTFGSGTKLEIKRTVAAPSVFIFPPSDEQLKSGTASVVCLLNNFYPREAKVQWKVDNALQSGNSQESVTEQDSKDSTYSLSSTLTLSKADYEKHKVYACEVTHQGLSSPVTKSFNRGECASASAAASSASSAASSNSDSECPLSHDGYCLHDGVCMYIEALDKYACNCVVGYIGERCQYRDLKWWELRGSGSGIEPDSGGSEVQLVESGGGLVKPGGSLKLSCAASGFKFSRYAMSWVRQAPGKRLEWVATISSGGSYIYYPDSVKGRFTISRDNVKNTLYLQMSSLRSEDTAIYYCARRDYDLDYFDSWGQGTLVTVSS[human IgG1 constant region not listed]
notes: also called anti-CD6^EGF[GZMB]; Base bionic CD6-EGF antibody conjugate with granzyme cleavage site
B1: in the assay with human CD6, the 50% effective concentration (EC50 (read off the curve)) (commonly the concentration at which the effect is half-maximal) was roughly 0.09 µg/mL.

B2: MMP2 cleaved bionic anti-CD6/EGF antibody conjugate (wild type) (Fc fusion)
chain: DIQMTQSPILLSASVGDRVTITCKASRDIRSYLTWYQQRTNGSPRTLIYYATSLADGVPSRFSGSGSGQDYSLTISSLESDDIADYYCLQHGESPFTFGSGTKLEIKRTVAAPSVFIFPPSDEQLKSGTASVVCLLNNFYPREAKVQWKVDNALQSGNSQESVTEQDSKDSTYSLSSTLTLSKADYEKHKVYACEVTHQGLSSPVTKSFNRGECASASAAASSASSAASSNSDSECPLSHDGYCLHDGVCMYIEALDKYACNCVVGYIGERCQYRDLKWWELRGSGVLPASLYSGSEVQLVESGGGLVKPGGSLKLSCAASGFKFSRYAMSWVRQAPGKRLEWVATISSGGSYIYYPDSVKGRFTISRDNVKNTLYLQMSSLRSEDTAIYYCARRDYDLDYFDSWGQGTLVTVSS[human IgG1 constant region not listed]
modifications: backbone cleaved by MMP2 within the MMP2/9 site (SEQ ID NO:66) of the second linker; the bond that is cut is not stated
notes: also called wild type cleaved bionic anti-CD6/EGF antibody conjugate
Turning to B2, in the assay with CD6 Ecto (ectodomain), the dissociation constant Kd (commonly a measure of binding affinity in units of concentration) worked out at 0.762 nM, the off-rate constant (koff) (usually the first-order rate constant of dissociation) was found to be 0.0017 s⁻¹ and the kon (usually the second-order rate constant of association) was determined as 2.3e+06 M⁻¹ s⁻¹.

B3: Bionic anti-CD6/EGF antibody conjugate of SEQ ID NO:32, previously cleaved and purified (Fc fusion)
chain: DIQMTQSPILLSASVGDRVTITCKASRDIRSYLTWYQQRTNGSPRTLIYYATSLADGVPSRFSGSGSGQDYSLTISSLESDDIADYYCLQHGESPFTFGSGTKLEIKRTVAAPSVFIFPPSDEQLKSGTASVVCLLNNFYPREAKVQWKVDNALQSGNSQESVTEQDSKDSTYSLSSTLTLSKADYEKHKVYACEVTHQGLSSPVTKSFNRGECASASAAASSASSAASSNSDSECPLSHDGYCLHDGVCMYIEALDKYACNCVVGYIGERCQYRDLKWWELRGSGVLPASLYSGSEVQLVESGGGLVKPGGSLKLSCAASGFKFSRYAMSWVRQAPGKRLEWVATISSGGSYIYYPDSVKGRFTISRDNVKNTLYLQMSSLRSEDTAIYYCARRDYDLDYFDSWGQGTLVTVSS[human IgG1 constant region not listed]
modifications: backbone cleaved by protease (MMP9 per FIG. 25) within the MMP2/9 site (SEQ ID NO:66) of the second linker; the bond that is cut is not stated
notes: After cleavage the molecule consists of LC-linker-EGF-(linker remnant) and (linker remnant)-HC-Fc; also called cleaved bionic anti-CD6/EGF antibody conjugate; Bionic Cleaved
The molecule B3 returned a Kd in the assay with EGFR of 230 nM.
